Laboratory results taken from the supplement of paper PMC3334620.
Whole data set: some 33,000 sequences, median “E-score (-0.5 to 0.5)” near -0.016, cut for the highest 2% near 0.32. The list shows a part of the results.

Target: T1, Stp1 (UniProt B3LFK1)
T1 sequence: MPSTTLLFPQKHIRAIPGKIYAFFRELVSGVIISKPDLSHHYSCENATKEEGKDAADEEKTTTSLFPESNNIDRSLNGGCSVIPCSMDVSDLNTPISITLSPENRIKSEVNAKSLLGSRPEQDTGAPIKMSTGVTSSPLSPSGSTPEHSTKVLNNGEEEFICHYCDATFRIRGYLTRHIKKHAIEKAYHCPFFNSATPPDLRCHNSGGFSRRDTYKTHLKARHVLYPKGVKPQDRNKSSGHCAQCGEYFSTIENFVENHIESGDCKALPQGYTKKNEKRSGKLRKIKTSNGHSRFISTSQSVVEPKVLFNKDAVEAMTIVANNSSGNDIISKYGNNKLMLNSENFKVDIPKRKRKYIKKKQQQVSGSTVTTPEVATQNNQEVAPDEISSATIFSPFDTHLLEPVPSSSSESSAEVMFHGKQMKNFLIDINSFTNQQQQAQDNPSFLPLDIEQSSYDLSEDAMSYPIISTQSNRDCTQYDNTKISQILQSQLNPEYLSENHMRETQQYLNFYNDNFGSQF
Assay: PBM E-score (8-mer binding enrichment) (E-score (-0.5 to 0.5)); higher = stronger / more preferred TF binding; most listed sequences are background and not binding sites
Conditions: protein concentration: 200 nM; construct: GST-full length
How it was run: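 Each ungapped eight-base word and its reverse complement, pooled, received an E-score from the Universal PBM Analysis Suite. Underlying scans, normalised with masliner, recorded fluorescent anti-GST bound to GST-tagged yeast transcription factors. These were applied at about 100-200 nM to universal all-10-mer Agilent arrays double-stranded by primer extension.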

Sequence	PBM E-score
GCTGAGAA	-0.0948
AGCATGTA	-0.192
CTTATGAC	-0.046
GAATTCGA	0.027
TATGAGCA	0.045
ATAGAGAG	-0.181
TGTTGCAA	0.248
ACTTTTCC	0.0971
GGTATACC	-0.0752
CACCGAGC	0.0864
CCATGCAC	-0.107
GGGGACCA	-0.23
AGTGTTCC	0.0545
CCCGCGAC	-0.0506
AGTTAGCG	0.0166
ATATAAAT	0.235
CAGTGACA	-0.155
AACCCAAA	0.12
ACTAGCTG	-0.217
CAAGCCCC	-0.282
GAGCGGCA	0.44
GGACTCAA	-0.152
ATAACGAG	0.0512
GGAACGCA	-0.0347
CGTTACAA	0.0773

Sequence	PBM E-score
GTAACAGA	0.174
CACTTAGA	0.0997
AACTGTCC	-0.187
CACGTGGA	0.0843
CGCCCTAG	0.147
ATGACGCG	0.0508
CTCACTTA	-0.0129
ACGAAAGA	0.0615
TGATTGAA	0.155
CTCGTAAA	0.0114
CATGTTTC	0.249
ATTTATCA	0.175
AGGCCCGA	-0.286
ATGCGTGG	-0.184
ACTAGATC	-0.0829
GACCTCGA	-0.146
ACCTAACG	0.0487
ATCCGTGA	0.00902
ATCTAAGG	-0.143
CAAGGATC	0.0757
CCCGGCAG	-0.227
AGACCGTA	-0.189
TTGAACAA	0.0506
AAAGTGTA	-0.154
TCGCTTAA	0.143

Sequence	PBM E-score
TATCCTGA	0.0787
ACCGCGCG	0.209
ATAAGACG	-0.0885
ACATCTCA	-0.0212
ATTACCAG	0.122
ACGGGTCC	-0.0534
TTCTAGAA	0.0654
ACAACTGG	-0.127
CAGCAGGG	-0.186
CCCTCCAC	-0.16
CGTCACAC	-0.104
GATATCCA	0.143
ATCAAAAA	0.0976
CGTGACTC	-0.197
TACAAAAA	0.0816
AACATTAG	-0.14
GACGTTGA	-0.0706
CGGGCCGC	0.236
AGCAGGCG	-0.0422
GCACAGGC	0.057
CAGACGGC	0.42
TGCCGCAA	0.333
ACCAAGTC	-0.125
CTCACCAG	-0.213
CGGTGCAA	-0.0137

Sequence	PBM E-score
ACGCATGA	-0.168
CCCCGACA	-0.12
AATTCCGT	0.141
ACGTACCT	-0.226
CCTCACGC	0.253
CAATTCAC	0.142
TGAGCACA	-0.0425
CTCAGCTA	-0.117
AGAAACTA	0.0167
AGGAACAT	-0.0768
TATGAGAA	0.00837
CTAACTGA	0.00597
CGGGCTAC	-0.216
AGCTTTTA	0.0944
CGTCCACG	0.112
ATAATTCG	0.137
CAAGTAGC	-0.103
GATCAATA	0.0923
AAGAAGAG	0.00115
AGTCCACC	-0.144
AGTGGGCA	0.0851
CTCTGGGA	-0.0974
CGAGATAC	0.149
GAAATACA	-0.00264
GTGGTCAA	-0.128

Sequence	PBM E-score
ACGCGAAC	-0.138
CGTGTCTA	0.0481
GCGTGGAC	-0.126
ACCATGGA	-0.131
TGTACTAA	0.193
GCGACGCA	-0.0317
CGATGCGA	0.0342
GAAACAAA	0.221
CTAGCTAG	-0.00873
AGGTGGAG	-0.182
AACCAGGT	-0.227
ACTTTCGC	-0.0606
AGGGCCGC	0.168
AACCGCGC	0.167
GAAGTTCA	0.147
AGCTCTGA	-0.164
AATAGCAT	-0.021
AAAGAAAG	-0.0331
AATTCTCA	-0.0957
AGCGACCT	-0.259
GCTAGTCC	-0.187
AGACGACC	-0.178
ACGAGCGG	0.261
GTACGGAC	0.201
GAATTACC	-0.0591

Sequence	PBM E-score
GGCTGCCC	-0.184
GGCTGATA	0.105
AGGAGCGC	-0.11
ATTTCTCG	0.265
ATCGTGGC	0.0773
GGGGATTA	-0.269
TGCAAAAA	0.0634
CCGGTTGA	0.0433
CGAGTATC	-0.246
ACAGGGGG	-0.28
AAATGGAT	-0.0982
CAACCAGC	-0.322
ATCCCGGA	-0.309
GCGCCAGC	0.0628
CACAGTCA	-0.264
ACGTACCC	-0.015
CGTTTCAG	0.217
AGCATGAG	-0.115
CATTTACC	0.0269
TCAGCGGA	0.0468
CATTCATC	-0.21
CGAAAACG	0.207
GTGTGGGA	-0.0906
CCTTATAA	0.0183
CGTCAAAG	0.0585

Sequence	PBM E-score
AATATGTG	0.211
AATGATCT	-0.0535
GCCTTATA	0.232
CGGATGGA	-0.0835
ACAGTACC	0.0208
ACAACTCG	0.0262
ATCGAACC	-0.0352
AGGATTAT	-0.0874
CAGGCATC	-0.0407
CCAAAAGC	0.0456
AGCATACC	-0.18
ATCAGGTG	-0.073
ATGTATCG	0.104
GTGTAAAC	0.0438
AAGGCATC	0.292
CTAAAGCA	0.0413
AGAGACTC	-0.182
CGAGTGCG	0.124
CTAGAGTC	-0.33
CTTCTTCC	-0.345
AAGACGAC	-0.0773
AGCCAACC	-0.11
